Measured values taken from the supplement of paper PMC4967469.
Lines with a small IC50 respond at low doses; fits outside the tested doses are given as limits. AUC sums up the same curve from the lowest dose to the 256-fold higher top dose; the more sensitive the line, the further below 1. For part of these data: Where the top dose is marked as inferred, it is not printed in the source and was worked back from the curve model. For part of these data: Drugs with an entry number were screened twice under separate entries, and the two screens often disagree.

Columns and labels:
Assay in all cases: Viability of human cancer cell lines after 72 h of drug (GDSC screen)
AS601245 = compound: N#CC(c1ccnc(NCCc2cccnc2)n1)c1nc2ccccc2s1 [AS601245]; conditions: top dose 8 µM; top dose inferred
Method: (§1)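 Human cancer cell lines in 384-well plates, medium with 10% serum, drug for 72 h over a 256-fold dose range (nine 2-fold or five 4-fold steps up to the top dose). Adherent lines were fixed and stained with the nucleic acid dye Syto60, suspension lines read with resazurin; signal relative to control wells, capped at 0 and 100%. One two-parameter sigmoid per drug and line, fitted in a mixed model over all curves with the slope shared within a line.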

EX-527 = compound: NC(=O)C1CCCc2c1[nH]c1ccc(Cl)cc21 [EX-527]; conditions: top dose 20 µM
Method: as §1

AZ628 = compound: Cc1ccc(NC(=O)c2cccc(C(C)(C)C#N)c2)cc1Nc1ccc2ncn(C)c(=O)c2c1 [AZ628]; conditions: top dose 4 µM; top dose inferred
Method: as §1

AZD6244 = compound: Cn1cnc2c(F)c(Nc3ccc(Br)cc3Cl)c(C(=O)NOCCO)cc21 [AZD6244]; conditions: top dose 4 µM; screen: GDSC drug entry 1498; top dose inferred
Method: as §1

YM201636 = compound: Nc1ccc(C(=O)Nc2cccc(-c3nc(N4CCOCC4)c4oc5ncccc5c4n3)c2)cn1 [YM201636]; conditions: top dose 5.12 µM; top dose inferred
Method: as §1

Cell Line	AUC (AS601245)	IC50 (AS601245)	AUC (EX-527)	IC50 (EX-527)	AUC (AZ628)	IC50 (AZ628)	AUC (AZD6244)	IC50 (AZD6244)	AUC (YM201636)	IC50 (YM201636)
HT (B-cell lymphoma, suspension)	0.883	7.39 µM	0.979	> 20 µM	0.967	> 4 µM	0.988	> 4 µM	0.8	2.25 µM
HT-144 (melanoma, adherent)	0.797	4.27 µM	0.98	> 20 µM	0.161	0.0196 µM	0.482	0.222 µM	0.916	> 5.12 µM
HUTU-80 (digestive system, adherent)	0.781	2.74 µM	0.981	> 20 µM	0.731	–	0.986	> 4 µM	0.889	4.09 µM
Hs-445 (Hodgkin lymphoma, suspension)	0.872	6.63 µM	0.988	> 20 µM	0.944	> 4 µM	0.943	> 4 µM	0.929	> 5.12 µM
IMR-5 (neuroblastoma, adherent)	0.911	> 8 µM	0.99	> 20 µM	0.986	> 4 µM	0.982	> 4 µM	0.847	2.91 µM
IST-MEL1 (melanoma, adherent)	0.81	5.22 µM	0.982	> 20 µM	0.475	0.21 µM	0.85	3.96 µM	0.865	> 5.12 µM
IST-MES1 (mesothelioma, adherent)	0.856	6.52 µM	0.983	> 20 µM	0.955	> 4 µM	0.982	> 4 µM	0.808	2.68 µM
IST-SL1 (small cell lung carcinoma, semi-adherent)	0.933	> 8 µM	0.986	> 20 µM	0.972	> 4 µM	0.955	> 4 µM	0.787	2.3 µM
JAR (urogenital system, adherent)	0.988	> 8 µM	0.983	> 20 µM	0.983	> 4 µM	0.984	> 4 µM	0.954	> 5.12 µM
JJN-3 (haematopoietic neoplasm, suspension)	0.866	5.11 µM	0.974	> 20 µM	0.887	3.07 µM	0.962	> 4 µM	0.909	4.91 µM
JM1 (B-cell lymphoma, suspension)	0.871	5.76 µM	0.989	> 20 µM	0.93	> 4 µM	0.97	> 4 µM	0.822	2.46 µM
JSC-1 (B-cell lymphoma, suspension)	0.874	7.61 µM	0.979	> 20 µM	0.633	0.578 µM	0.908	> 4 µM	0.766	1.87 µM
JURL-MK1 (chronic myeloid leukaemia, suspension)	0.92	> 8 µM	0.979	> 20 µM	0.539	0.318 µM	0.746	1.26 µM	0.904	> 5.12 µM
JVM-2 (lymphoid neoplasm, suspension)	0.908	> 8 µM	0.968	> 20 µM	0.906	> 4 µM	0.906	> 4 µM	0.875	> 5.12 µM
JVM-3 (lymphoid neoplasm, suspension)	0.966	> 8 µM	0.985	> 20 µM	0.987	> 4 µM	0.939	> 4 µM	0.94	> 5.12 µM
JiyoyeP-2003 (Burkitt lymphoma, suspension)	0.903	> 8 µM	0.991	> 20 µM	0.924	> 4 µM	0.99	> 4 µM	0.923	> 5.12 µM
K5 (thyroid, adherent)	0.878	7.52 µM	0.975	> 20 µM	0.396	0.131 µM	0.244	0.0475 µM	0.907	> 5.12 µM
KALS-1 (glioma, adherent)	0.914	> 8 µM	0.974	> 20 µM	0.912	> 4 µM	0.817	3.38 µM	0.922	> 5.12 µM
KARPAS-45 (lymphoblastic leukaemia, suspension)	0.856	4.81 µM	0.983	> 20 µM	0.935	> 4 µM	0.991	> 4 µM	0.826	2.43 µM
KARPAS-299 (anaplastic large cell lymphoma, suspension)	0.942	> 8 µM	0.976	> 20 µM	0.99	> 4 µM	0.975	> 4 µM	0.844	2.78 µM
KARPAS-422 (B-cell lymphoma, suspension)	0.87	7.31 µM	0.978	> 20 µM	0.94	> 4 µM	0.958	> 4 µM	0.904	> 5.12 µM
KCL-22 (chronic myeloid leukaemia, suspension)	0.859	4.99 µM	0.983	> 20 µM	0.647	0.592 µM	0.909	> 4 µM	0.93	> 5.12 µM
KE-37 (lymphoblastic leukaemia, suspension)	0.848	3.94 µM	0.992	> 20 µM	0.914	3.36 µM	0.994	> 4 µM	0.838	2.35 µM
KELLY (neuroblastoma, adherent)	0.934	> 8 µM	0.988	> 20 µM	0.946	> 4 µM	0.955	> 4 µM	0.783	1.96 µM
KG-1 (acute myeloid leukaemia, suspension)	0.925	> 8 µM	0.985	> 20 µM	0.856	2.7 µM	0.805	1.77 µM	0.818	2.49 µM
